In PMC5642489:
No constants are given. Whether binding was seen depends on the method and setting. In cells and extracts the contact can be indirect. Some entries that bind do so weakly or less than the wild type. Sequences can lack the tags named with a protein. Blank lines part the entries; values can stand above or below the molecule they belong to.

Sequences of proteins named here, by UniProt entry; tags and fusion partners are left off. A change or cut given only in a name is not applied to a line headed by its entry. Residues count along the entry.
UniProt Q92786: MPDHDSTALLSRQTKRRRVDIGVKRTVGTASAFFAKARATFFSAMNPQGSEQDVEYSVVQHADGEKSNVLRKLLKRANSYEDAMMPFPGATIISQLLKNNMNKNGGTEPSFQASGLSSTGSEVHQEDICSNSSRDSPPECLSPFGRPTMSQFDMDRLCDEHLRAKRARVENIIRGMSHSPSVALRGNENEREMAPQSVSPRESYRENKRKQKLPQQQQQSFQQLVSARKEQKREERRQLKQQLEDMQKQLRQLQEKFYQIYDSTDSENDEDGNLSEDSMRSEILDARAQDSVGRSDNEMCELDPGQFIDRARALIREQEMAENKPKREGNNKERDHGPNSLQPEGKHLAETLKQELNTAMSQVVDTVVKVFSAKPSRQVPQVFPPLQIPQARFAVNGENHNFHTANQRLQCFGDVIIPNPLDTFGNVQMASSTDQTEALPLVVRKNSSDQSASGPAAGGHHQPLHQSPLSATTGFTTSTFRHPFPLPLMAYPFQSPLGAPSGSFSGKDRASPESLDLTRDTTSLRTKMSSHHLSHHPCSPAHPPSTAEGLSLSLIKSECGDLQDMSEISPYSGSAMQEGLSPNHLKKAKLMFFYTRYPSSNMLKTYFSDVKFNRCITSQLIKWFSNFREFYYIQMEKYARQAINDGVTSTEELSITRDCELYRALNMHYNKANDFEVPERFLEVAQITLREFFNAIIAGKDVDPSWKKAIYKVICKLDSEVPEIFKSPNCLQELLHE
Flag-Prox1 N (1-337): residues 1-337 of Q92786
Flag-Prox1 M (335-570): residues 335-570 of Q92786
Flag-Prox1 C (544-738): residues 544-737 of Q92786

Tests used:
[1] = target: T1, GST-fused NFAT2 protein (human) (UniProt O95644); assay: pull-down; purified GST-NFAT2 bound to Glutathione-Sepharose beads (2 mg of GST fusion protein) incubated with 10 μl of 35S-methionine-labeled in vitro translated protein; autoradiography; only the target purified
T1 sequence: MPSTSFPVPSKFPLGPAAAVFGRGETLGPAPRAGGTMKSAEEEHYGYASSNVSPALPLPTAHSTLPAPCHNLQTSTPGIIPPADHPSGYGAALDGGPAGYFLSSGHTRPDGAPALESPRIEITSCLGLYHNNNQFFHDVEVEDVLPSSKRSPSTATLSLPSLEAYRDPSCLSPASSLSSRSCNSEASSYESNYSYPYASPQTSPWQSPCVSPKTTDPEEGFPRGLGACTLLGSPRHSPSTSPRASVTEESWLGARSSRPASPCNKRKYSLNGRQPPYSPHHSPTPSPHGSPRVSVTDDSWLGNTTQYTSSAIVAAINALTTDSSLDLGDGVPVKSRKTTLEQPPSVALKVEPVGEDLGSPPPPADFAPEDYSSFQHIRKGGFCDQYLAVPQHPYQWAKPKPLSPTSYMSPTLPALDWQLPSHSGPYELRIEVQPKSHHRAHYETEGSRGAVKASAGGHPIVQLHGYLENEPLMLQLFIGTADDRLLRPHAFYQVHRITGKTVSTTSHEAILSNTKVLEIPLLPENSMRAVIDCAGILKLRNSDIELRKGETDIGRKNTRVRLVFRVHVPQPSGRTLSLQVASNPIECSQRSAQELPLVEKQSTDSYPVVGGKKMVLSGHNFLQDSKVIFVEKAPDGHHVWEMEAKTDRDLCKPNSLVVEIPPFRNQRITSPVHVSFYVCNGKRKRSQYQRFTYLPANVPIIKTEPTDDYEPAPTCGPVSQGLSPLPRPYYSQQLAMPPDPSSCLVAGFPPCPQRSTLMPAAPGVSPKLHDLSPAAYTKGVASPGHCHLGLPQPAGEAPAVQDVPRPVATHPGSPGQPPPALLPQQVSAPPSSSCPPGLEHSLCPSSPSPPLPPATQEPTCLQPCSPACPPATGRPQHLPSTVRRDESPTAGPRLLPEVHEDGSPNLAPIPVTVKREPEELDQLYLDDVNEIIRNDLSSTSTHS

[2] = target: T2, Flag-tagged NFAT2, in Huh7 (human) (UniProt O95644); assay: co-IP; Huh7 cells transiently transfected with Flag-NFAT2, endogenous Prox1; anti-Flag agarose affinity gel for 6 h at 4°C; immunoblot with anti-NFAT2 or anti-Prox1 antibodies
T2 sequence: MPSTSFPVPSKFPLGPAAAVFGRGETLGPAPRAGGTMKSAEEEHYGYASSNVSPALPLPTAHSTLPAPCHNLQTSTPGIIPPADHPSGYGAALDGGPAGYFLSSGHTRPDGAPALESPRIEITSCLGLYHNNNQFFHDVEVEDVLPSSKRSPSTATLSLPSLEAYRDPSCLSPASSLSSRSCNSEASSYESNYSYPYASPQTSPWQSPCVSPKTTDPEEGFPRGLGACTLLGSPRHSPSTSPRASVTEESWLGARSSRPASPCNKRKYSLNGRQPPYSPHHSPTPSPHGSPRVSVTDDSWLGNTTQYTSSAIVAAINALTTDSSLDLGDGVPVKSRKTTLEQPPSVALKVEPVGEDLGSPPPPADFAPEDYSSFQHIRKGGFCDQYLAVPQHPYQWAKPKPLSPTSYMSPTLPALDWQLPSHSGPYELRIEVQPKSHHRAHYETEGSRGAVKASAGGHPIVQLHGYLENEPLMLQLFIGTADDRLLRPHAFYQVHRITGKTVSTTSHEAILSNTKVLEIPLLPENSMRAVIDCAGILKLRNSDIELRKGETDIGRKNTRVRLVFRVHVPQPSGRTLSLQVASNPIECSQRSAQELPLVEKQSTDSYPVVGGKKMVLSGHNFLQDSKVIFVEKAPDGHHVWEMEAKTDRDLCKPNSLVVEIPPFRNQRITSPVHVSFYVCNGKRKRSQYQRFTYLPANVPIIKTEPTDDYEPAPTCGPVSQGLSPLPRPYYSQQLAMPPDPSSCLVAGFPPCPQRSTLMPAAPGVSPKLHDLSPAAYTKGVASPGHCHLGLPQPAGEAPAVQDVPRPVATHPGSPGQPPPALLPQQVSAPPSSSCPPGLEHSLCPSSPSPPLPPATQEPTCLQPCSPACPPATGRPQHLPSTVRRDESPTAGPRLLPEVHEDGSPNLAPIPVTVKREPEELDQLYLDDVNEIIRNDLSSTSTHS

[3] = target: T3, Flag-tagged nuclear factor of activated T cells 2 (NFAT2), in HEK293T (human) (UniProt O95644); assay: co-IP; HEK293T cells transiently co-transfected; 1 mg of protein incubated with anti-Flag agarose affinity gel for 6 h at 4°C; immunoblot with anti-Prox1, anti-NFAT2 or anti-Flag antibodies
T3 sequence: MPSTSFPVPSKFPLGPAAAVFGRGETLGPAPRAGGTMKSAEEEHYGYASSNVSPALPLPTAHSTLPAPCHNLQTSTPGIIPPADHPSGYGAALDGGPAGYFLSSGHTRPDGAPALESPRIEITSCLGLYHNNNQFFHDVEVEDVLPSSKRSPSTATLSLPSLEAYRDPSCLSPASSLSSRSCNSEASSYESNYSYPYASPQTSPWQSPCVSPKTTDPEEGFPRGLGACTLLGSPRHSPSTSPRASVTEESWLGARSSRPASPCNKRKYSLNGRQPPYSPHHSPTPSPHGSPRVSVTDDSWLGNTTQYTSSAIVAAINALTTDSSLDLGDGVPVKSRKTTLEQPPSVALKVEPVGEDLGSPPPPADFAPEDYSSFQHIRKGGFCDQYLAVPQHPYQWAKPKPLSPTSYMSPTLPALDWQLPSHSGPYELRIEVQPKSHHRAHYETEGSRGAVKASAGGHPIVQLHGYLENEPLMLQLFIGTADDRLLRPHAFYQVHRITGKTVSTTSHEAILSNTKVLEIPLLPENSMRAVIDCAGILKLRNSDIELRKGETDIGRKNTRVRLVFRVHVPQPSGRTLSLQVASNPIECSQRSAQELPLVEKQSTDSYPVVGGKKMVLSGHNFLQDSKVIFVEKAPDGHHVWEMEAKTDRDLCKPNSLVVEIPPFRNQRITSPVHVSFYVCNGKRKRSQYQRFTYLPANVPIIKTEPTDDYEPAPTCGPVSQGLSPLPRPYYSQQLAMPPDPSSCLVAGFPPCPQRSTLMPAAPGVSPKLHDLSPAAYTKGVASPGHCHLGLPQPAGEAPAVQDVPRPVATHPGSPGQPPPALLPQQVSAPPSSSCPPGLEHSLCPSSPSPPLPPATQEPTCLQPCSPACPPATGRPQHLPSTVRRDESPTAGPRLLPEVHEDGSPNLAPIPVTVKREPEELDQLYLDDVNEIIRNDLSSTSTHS

[4] = target: Flag-Prox1 M (335-570) (human) (UniProt Q92786); assay: as above
[5] = target: Flag-tagged Prox1, full length (human) (UniProt Q92786); assay: as above
[6] = target: Flag-Prox1 N (1-337) (human) (UniProt Q92786); assay: as above
[7] = target: Flag-Prox1 C (544-738) (human) (UniProt Q92786); assay: as above

- binding [1]: no binding
Molecule: 35S-labeled Prox1 C (544-738) (from UniProt Q92786 544-737) (domain or fragment)

- binding [1]: no binding
Molecule: 35S-labeled Prox1 M (335-570) (from UniProt Q92786 335-570) (domain or fragment)

- binding [1]: binds
Molecule: 35S-labeled Prox1 N (1-337) (from UniProt Q92786 1-337) (domain or fragment)

- binding [1]: binds
Molecule: 35S-labeled Prox1, full length (from UniProt Q92786 1-737)

- binding [2]: binds
Molecule: Endogenous Prox1 of Huh7 cells (from UniProt Q92786 1-737)

- binding [3]: binds
Molecule: Prospero-related homeobox 1 (Prox1), untagged, full length (from UniProt Q92786 1-737)

- binding [4]: no binding
- binding [5]: binds
- binding [6]: binds
- binding [7]: no binding
B1: Nuclear factor of activated T cells 2 (NFAT2), untagged (protein, UniProt O95644 1-943)
chain: MPSTSFPVPSKFPLGPAAAVFGRGETLGPAPRAGGTMKSAEEEHYGYASSNVSPALPLPTAHSTLPAPCHNLQTSTPGIIPPADHPSGYGAALDGGPAGYFLSSGHTRPDGAPALESPRIEITSCLGLYHNNNQFFHDVEVEDVLPSSKRSPSTATLSLPSLEAYRDPSCLSPASSLSSRSCNSEASSYESNYSYPYASPQTSPWQSPCVSPKTTDPEEGFPRGLGACTLLGSPRHSPSTSPRASVTEESWLGARSSRPASPCNKRKYSLNGRQPPYSPHHSPTPSPHGSPRVSVTDDSWLGNTTQYTSSAIVAAINALTTDSSLDLGDGVPVKSRKTTLEQPPSVALKVEPVGEDLGSPPPPADFAPEDYSSFQHIRKGGFCDQYLAVPQHPYQWAKPKPLSPTSYMSPTLPALDWQLPSHSGPYELRIEVQPKSHHRAHYETEGSRGAVKASAGGHPIVQLHGYLENEPLMLQLFIGTADDRLLRPHAFYQVHRITGKTVSTTSHEAILSNTKVLEIPLLPENSMRAVIDCAGILKLRNSDIELRKGETDIGRKNTRVRLVFRVHVPQPSGRTLSLQVASNPIECSQRSAQELPLVEKQSTDSYPVVGGKKMVLSGHNFLQDSKVIFVEKAPDGHHVWEMEAKTDRDLCKPNSLVVEIPPFRNQRITSPVHVSFYVCNGKRKRSQYQRFTYLPANVPIIKTEPTDDYEPAPTCGPVSQGLSPLPRPYYSQQLAMPPDPSSCLVAGFPPCPQRSTLMPAAPGVSPKLHDLSPAAYTKGVASPGHCHLGLPQPAGEAPAVQDVPRPVATHPGSPGQPPPALLPQQVSAPPSSSCPPGLEHSLCPSSPSPPLPPATQEPTCLQPCSPACPPATGRPQHLPSTVRRDESPTAGPRLLPEVHEDGSPNLAPIPVTVKREPEELDQLYLDDVNEIIRNDLSSTSTHS
